Assay results: PubChem BioAssay (Tox21)
“And” between values parts separate entries of the source, which are not always exact repeats. Equal entries are not always repeated. The shares of active, inactive and inconclusive entries below differ from those in the screen. A potency beside an inconclusive call is a rough fit, not a confirmed value. The source made the active and inactive calls. The call rests on the fitted dose curve; in most records, active means well fitted inhibition curve with a large enough effect in the repeat runs; inconclusive means weak or mixed curves; inactive means no such curve, though single readings can be large or run the other way.

biological target: Cytochrome P450 1A2 (Homo sapiens) (UniProt P05177); assay: Cytochrome P450 Family 1 Subfamily A Member 2 (CYP1A2) small molecule antagonists: luciferase reporter qHTS assay (AID 1671199); settings: P450-Glo CYP1A2 enzyme, luciferin luminescence, 1 h; series mostly up to 115 µM; further: nearly all actives have a fitted effect of over 50% in size
How it was run: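 Signal from luciferin formed by CYP1A2 from a proluciferin substrate is read as luminescence, expressed in relative luminescence units. Compounds sit with enzyme 10 min, NADPH-driven reaction runs 1 h, all at room temperature.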
Potency means the concentration at half of the fitted maximal effect; tags describe the fitted curve by direction and shape.

Chain of UniProt P05177 (P05177 whole entry, looked up): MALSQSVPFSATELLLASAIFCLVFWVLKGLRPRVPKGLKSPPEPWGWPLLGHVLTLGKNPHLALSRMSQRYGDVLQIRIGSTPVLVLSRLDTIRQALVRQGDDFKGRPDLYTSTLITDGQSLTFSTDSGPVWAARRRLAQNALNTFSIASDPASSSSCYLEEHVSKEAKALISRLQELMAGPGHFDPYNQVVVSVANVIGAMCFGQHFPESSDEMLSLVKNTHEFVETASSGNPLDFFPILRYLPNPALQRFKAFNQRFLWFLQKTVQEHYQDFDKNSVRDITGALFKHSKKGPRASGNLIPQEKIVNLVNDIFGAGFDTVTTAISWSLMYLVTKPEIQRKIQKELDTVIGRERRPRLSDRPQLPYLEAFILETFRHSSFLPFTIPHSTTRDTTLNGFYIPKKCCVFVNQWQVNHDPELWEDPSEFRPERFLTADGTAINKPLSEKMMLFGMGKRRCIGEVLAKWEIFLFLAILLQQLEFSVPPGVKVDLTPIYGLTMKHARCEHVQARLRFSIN

Row | Compound | Potency
1 | C=C(C#N)CCC#N | inconclusive: 71 µM [inhibitor, partial curve, poor fit]
2 | O=C(NC(=O)c1c(F)cccc1F)Nc1cc(Cl)c(OC(F)(F)C(F)C(F)(F)F)cc1Cl (stereo not drawn) | inconclusive: 31.7 µM [inhibitor, partial curve]
3 | CO/C=C(/C(=O)OC)c1ccccc1Oc1cc(Oc2ccccc2C#N)ncn1 | active: 41.4 µM
4 | O=C(CCl)c1ccccc1 | inconclusive: 72 µM [inhibitor, partial curve]
5 | C[C@]12CC[C@H]3[C@@H](CCC4=CC(=O)CC[C@@H]43)[C@@H]1CC[C@@H]2OC(=O)CCc1ccco1 | inactive
6 | CCN(Cc1ccc(Cl)nc1)/C(=C/[N+](=O)[O-])NC | inconclusive: 34.7 µM [inhibitor, partial curve, poor fit]
7 | CCCCC(C#N)(Cn1cncn1)c1ccc(Cl)cc1 (stereo not drawn) | inconclusive: 39.8 µM [inhibitor, partial curve] and inconclusive: 20 µM [inhibitor, full curve]
8 | CCOP(=O)(CN(CCO)CCO)OCC | inconclusive: 44.8 µM [inhibitor, partial curve]
9 | Clc1ccccc1N1CCNCC1 | inconclusive: 27.5 µM [inhibitor, partial curve]
10 | C=CC(=O)OCC(C)C | inconclusive: 39.7 µM [inhibitor, partial curve]
11 | CCCCN(CCCC)C(=S)[S-].CCCCN(CCCC)C(=S)[S-].[Zn+2] | inconclusive: 31.7 µM [inhibitor, partial curve]
12 | ClCC1CO1 (stereo not drawn) | inactive
13 | Cc1ccc(N=CN(C)C=Nc2ccc(C)cc2C)c(C)c1 | active: 31.9 µM and active: 35.6 µM and active: 30.9 µM
14 | CN(C)c1ccccc1 | inconclusive: 36.5 µM [inhibitor, partial curve] and inconclusive: 41.6 µM [inhibitor, partial curve]
15 | Oc1ccccc1Cl | inconclusive: 35.5 µM [inhibitor, partial curve] and inconclusive: 71 µM [inhibitor, partial curve]
16 | ClC(Cl)=C(Cl)C(Cl)=C(Cl)Cl | inconclusive: 70.5 µM [inhibitor, partial curve, poor fit]
17 | CCC(C)(C)O | inconclusive: 35.6 µM [inhibitor, partial curve, poor fit]
18 | O=NN1CCCCCC1 | inconclusive: 39.9 µM [inhibitor, partial curve]
19 | CC#C[C@]1(O)CC[C@H]2[C@@H]3C[C@H](C)C4=CC(=O)CC[C@]4(C)[C@H]3CC[C@@]21C | inactive

Row | Compound | Potency
20 | CC(C)(O)C(Cl)(Cl)Cl | inactive
21 | Cc1cc(=O)[nH]o1 | inactive
22 | COP(=O)(OC)Oc1ccc([N+](=O)[O-])cc1 | inactive
23 | O=C(NC(=O)c1ccccc1Cl)Nc1ccc(OC(F)(F)F)cc1 | inconclusive: 35.6 µM [inhibitor, partial curve]
24 | Clc1cc(Cl)c(Cl)c(Cl)c1 | inconclusive: 39.3 µM [inhibitor, partial curve]
25 | O=P1(N(CCCl)CCCl)NCCCO1 (stereo not drawn) | inconclusive: 57.1 µM [inhibitor, partial curve, poor fit]
26 | CC(Cc1ccccc1)NCCn1cnc2c1c(=O)n(C)c(=O)n2C (stereo not drawn) | inactive
27 | ClCc1ccc(Cl)cc1Cl | inconclusive: 63.3 µM [inhibitor, partial curve, poor fit]
28 | C/C=C/c1ccc2c(c1)OCO2 | inconclusive: 16.2 µM [inhibitor, full curve]
29 | COc1ccc2c3c1O[C@H]1[C@H](O)CC[C@H]4[C@@H](C2)N(C)CC[C@@]341 | inactive
30 | CCOC(=O)CP(=O)(OCC)OCC | inactive
31 | CC(Cl)CCl (stereo not drawn) | inactive
32 | COc1nc(C)nc(NC(=O)NS(=O)(=O)c2ccccc2Cl)n1 | inconclusive: 70 µM [inhibitor, partial curve, poor fit]
33 | O=[N+]([O-])c1ccc(CCl)cc1 | inconclusive: 62.2 µM [inhibitor, partial curve, poor fit]
34 | C[C@]12CC[C@H]3[C@@H](CCC4=CC(=O)CC[C@@]43C)[C@@H]1CC[C@@H]2O | inconclusive: 70.5 µM [inhibitor, partial curve, poor fit]
35 | C=CCCl | inconclusive: 66.3 µM [inhibitor, partial curve]
36 | Cn1c(N)nc2c3cccnc3ccc21 | active: 16.9 µM
37 | Nc1ccc(Br)cc1 | inconclusive: 44.7 µM [inhibitor, partial curve] and active: 44.8 µM
38 | ClCc1ccccc1 | inactive
